Reference: the supplement of paper PMC4604168 (melanoma cell lines)
The other results are listed elsewhere or left out. Most values come without repeats; read them as rough.

test system: WM1716; experiment: cell count relative to DMSO control; melanoma cells; higher = more viable cells; conditions: library dose: standard library concentration; 72 h
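Also: cells treated in 1,536-well plates, then fixed and DAPI-stained, with nuclei counted from automated high-throughput microscope images.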

**Q.** N.N.[Cl][Pt][Cl] [cisplatin] + CS(=O)(=O)CCNCc1ccc(-c2ccc3ncnc(Nc4ccc(OCc5cccc(F)c5)c(Cl)c4)c3c2)o1 [lapatinib] (first compound 8 µM, partner dose 4 µM) was tested. Which cell count did it give?
**A.** Its cell count is 111%.

**Q.** C[C@]12O[C@H](C[C@]1(O)CO)n1c3ccccc3c3c4c(c5c6ccccc6n2c5c31)CNC4=O [Lestaurtinib] + C[C@]1(c2nc3c(C(N)=O)cccc3[nH]2)CCCN1 [Veliparib] (first compound 0.02 µM, partner dose 7 µM) was tested. Which cell count did it give?
**A.** Its cell count is 80.6%.

**Q.** For Cn1cc(C2=C(c3cn(C4CCN(Cc5ccccn5)CC4)c4ccccc34)C(=O)NC2=O)c2ccccc21 [Enzastaurin] + CN1CCN(c2ccc3nc(-c4c(N)c5c(F)cccc5[nH]c4=O)[nH]c3c2)CC1 [Dovitinib] (first compound 4 µM, partner dose 0.5 µM), which cell count is on record?
**A.** Its cell count is 62.1%.

**Q.** With Cn1cc(C2=C(c3cn(C4CCN(Cc5ccccn5)CC4)c4ccccc34)C(=O)NC2=O)c2ccccc21 [Enzastaurin] + C[C@@H](Oc1cc(-c2cnn(C3CCNCC3)c2)cnc1N)c1c(Cl)ccc(F)c1Cl [Crizotinib] (first compound 4 µM, partner dose 1 µM) as the compound, how does the cell count read?
**A.** The cell count was 70.6%.

**Q.** How did the cell count turn out when C[As](C)SC[C@H](NC(=O)CC[C@H](N)C(=O)O)C(=O)NCC(=O)O [Darinaparsin] + Cc1cc(SCc2sc(-c3ccc(C(F)(F)F)c(F)c3)nc2C)ccc1OCC(=O)O [GW0742] (first compound 2 µM, partner dose 10 µM) was run?
**A.** The cell count was 69.6%.
